# The whole screen tested about 310,000 compounds, of which about 2,200 (0.71%) showed an effect of 50% or more. The effect is printed as a negative number. The list shows a part of the results.
# Target: human ether-à-go-go-related gene (hERG) potassium channel (human, UniProt Q12809)
# Assay: primary screen, population patch clamp on CHO cells stably expressing hERG
# Chain of human ether-à-go-go-related gene (hERG) potassium channel (Q12809 whole entry, looked up): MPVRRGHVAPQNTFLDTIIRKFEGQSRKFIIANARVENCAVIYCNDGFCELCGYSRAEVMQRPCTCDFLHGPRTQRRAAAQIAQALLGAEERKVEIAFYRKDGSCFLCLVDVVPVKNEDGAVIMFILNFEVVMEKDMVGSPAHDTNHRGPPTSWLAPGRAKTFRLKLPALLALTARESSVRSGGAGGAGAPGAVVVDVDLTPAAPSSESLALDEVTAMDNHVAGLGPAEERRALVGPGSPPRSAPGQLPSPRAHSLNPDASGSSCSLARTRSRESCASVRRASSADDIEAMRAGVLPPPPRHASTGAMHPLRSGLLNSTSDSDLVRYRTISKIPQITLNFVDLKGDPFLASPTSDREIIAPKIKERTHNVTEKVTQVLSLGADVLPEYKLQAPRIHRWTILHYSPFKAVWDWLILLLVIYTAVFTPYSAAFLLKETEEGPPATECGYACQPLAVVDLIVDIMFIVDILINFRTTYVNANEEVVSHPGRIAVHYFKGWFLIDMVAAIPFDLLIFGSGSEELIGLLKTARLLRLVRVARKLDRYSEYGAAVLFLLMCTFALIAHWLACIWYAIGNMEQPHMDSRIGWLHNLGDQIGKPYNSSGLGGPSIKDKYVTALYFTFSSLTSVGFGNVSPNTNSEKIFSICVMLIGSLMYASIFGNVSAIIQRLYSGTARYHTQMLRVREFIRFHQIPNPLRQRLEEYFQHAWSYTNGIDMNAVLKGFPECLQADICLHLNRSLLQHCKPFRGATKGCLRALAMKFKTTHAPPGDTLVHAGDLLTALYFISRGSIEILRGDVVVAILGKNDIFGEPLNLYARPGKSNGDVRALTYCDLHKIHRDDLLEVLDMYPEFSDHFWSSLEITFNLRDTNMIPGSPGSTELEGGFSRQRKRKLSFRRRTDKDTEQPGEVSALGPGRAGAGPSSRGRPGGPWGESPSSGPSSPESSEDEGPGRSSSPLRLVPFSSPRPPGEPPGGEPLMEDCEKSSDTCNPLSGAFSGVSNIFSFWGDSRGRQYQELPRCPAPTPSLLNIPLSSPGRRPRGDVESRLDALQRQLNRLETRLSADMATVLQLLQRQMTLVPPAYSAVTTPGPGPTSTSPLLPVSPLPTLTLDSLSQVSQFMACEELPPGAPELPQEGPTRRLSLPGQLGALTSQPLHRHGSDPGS
row,Compound,"hERG current change (%, negative = inhibition) at 1uM [%]"
1,Cc1c(C#N)c(N)nc2c3c(sc12)NC(=O)CC3c1ccc(F)cc1 (centres unmarked),12.7
2,COc1cc2c(cc1OC)C(c1cccc(Cl)c1)CC(=O)N2 (centres unmarked),8.13
3,CC(C)CCNC(=O)CN1C(=O)NC(c2ccccc2)(c2ccccc2)C1=O,9.25
4,Cc1ccc(-c2nc(S(=O)(=O)c3ccc(C)cc3)c(N3CCOCC3)o2)cc1,1.18
5,CCOc1ncccc1C(=O)NCc1ccccc1Cl,6.85
6,Cc1cc(=O)n2nc(N3CCC(C(=O)NCc4cccc(Cl)c4)CC3)sc2n1,6.73
7,CC(=O)N1c2ccccc2C(=O)C1N1CCCCC1 (centres unmarked),-5.64
8,O=C(CCNc1ccccc1)c1ccc2c(c1)OCO2,2.23
9,O=C(O)/C=C/C(=O)Nc1ccc(-n2ccc(C(F)(F)F)n2)cc1,7.99
10,CCCCOc1ccc(C(=O)N2CCNC(=O)C2)cc1,11
11,CCOC(=O)C1CCN(C(=O)c2cc3c(=O)n4ccccc4nc3s2)CC1,9.28
12,N#C/C(=C/c1ccc(Sc2nc3ccccc3[nH]2)o1)c1cccc(F)c1,-2.54
13,CCCCCCOc1ccc(/C(N)=N/O)cc1,-0.178
14,CCCCC1=CC2=C(c3ccco3)C(=O)C(C)(OC(=O)c3ccc(OC)cc3)C(=O)C2=CN1Cc1ccc2c(c1)OCO2 (centres unmarked),4.17
15,COc1ccc(C)cc1NC(=O)CNC(=O)Cn1ccc2ccccc2c1=O,3.68
16,COc1ccccc1N1CCN(C(=O)C2CCN(S(=O)(=O)c3ccc(C)cc3)CC2)CC1,9.73
17,CNC(=O)c1c(NC(=O)c2ccco2)sc2c1CCCC2,10
18,Cc1ccc(C)c(C(=O)CN2Cc3ccccc3C2=O)c1,9.3
19,O=C(CSc1nnc(CNc2ccc(F)cc2)n1Cc1ccco1)N1CCCC1,-15.6
20,O=C(NCc1cccnc1)NC1CCCCC1,8.24
21,Cc1cc(C)cc(NC(=S)NN)c1,5.97
22,COc1ccc(S(=O)(=O)N2CCCCC2)cc1NC(=O)CCOc1cc(C)ccc1C,12.6
23,Cc1cc[n+](-c2ccccc2)c2ccccc12.[Cl-],39.6

row,Compound,"hERG current change (%, negative = inhibition) at 1uM [%]"
1,O=C(O)c1ccc(CNC(=O)c2ccc(S(=O)(=O)N3CCCCC3)cc2)cc1,3.78
2,CCOc1ccc(S(=O)(=O)N2CCN(C(=O)c3ccncc3)CC2)cc1,3.79
3,O=C(CCl)NNc1cccc(Cl)n1,9.61
4,O=C(CCCc1nc(-c2ccc(Cl)cc2)no1)NC1CCCC1,15
5,COC(=O)CS(=O)(=O)c1nnc([C@H](Cc2ccccc2)NC(=O)OC(C)(C)C)o1,8.99
6,COc1ccc(C2CC(c3ccc(OC)cc3)n3nc(NS(C)(=O)=O)nc3N2)cc1 (centres unmarked),2.45
7,Cc1ccc(CCNc2ccccc2)c[n+]1[O-],3.25
8,Cc1cc(C(=O)N2CCN(c3ccc(F)cc3)CC2)on1,4.48
9,NC(=O)c1ccccc1NC(=S)NC(=O)c1ccc(Br)o1,1.92
10,COc1ccccc1NC(=O)CS(=O)(=O)c1cn(CC(=O)N2CCOCC2)c2ccccc12,5.18
11,O=C(CN(C(=O)c1csnn1)c1ccc(F)c(Cl)c1)NCc1ccc2c(c1)OCO2,-0.168
12,CC(C)C[C@H](NC(=O)c1nc[nH]c1C(=O)NCc1ccc(CNC(=O)OC(C)(C)C)cc1)C(=O)OCc1ccccc1,13.3
13,O=C(Nc1ccc(F)cc1)c1cccnc1Oc1ccccc1,5.92
14,CCOc1c(O)ccc(C2NC(=O)NC(C)=C2C(=O)OC)c1[N+](=O)[O-] (centres unmarked),-3.15
15,COc1ccc(C(=O)NNC(=O)CCn2nnc(-c3ccc(C)cc3)n2)cc1OC,14.2
16,CC[n+]1c(/C=C/C=C/c2ccc(N(C)C)cc2)sc2ccccc21.[O-][Cl+3]([O-])([O-])[O-],-29
17,CCn1c(CSc2nccn2C)nc2cc(C(=O)O)ccc21,12.7
18,Cc1ccc(OCC(O)CN2CCC(Cc3ccccc3)CC2)c(C)c1.Cl (centres unmarked),-49.9
19,CC(C)(CO)NC12CC3CC(CC(C3)C1)C2,6.93
20,CC(=O)NNC(=O)CN1C(=O)CN=C(c2ccccc2)c2cc(Br)ccc21,10.7
21,O=C(Nc1nccs1)c1cc2sccc2n1Cc1ccc(Cl)cc1,1.23
22,COC(=O)C1(S(=O)(=O)C2(C(=O)OC)CCCC2)CCCC1,0.758
23,Nn1c(SCC(=O)Nc2ccccc2F)nnc1C1CCCCC1,21.7

row,Compound,"hERG current change (%, negative = inhibition) at 1uM [%]"
1,O=C(COC(=O)c1cnccn1)NC(=O)c1ccccc1,0.268
2,O=C(/C=C/c1ccccc1[N+](=O)[O-])N1CCCCC1,5.23
3,COc1cc(C(=O)O/N=C(\N)c2cccc([N+](=O)[O-])c2)cc(OC)c1OC,2.97
4,N#C/C(C(=O)NCc1ccccc1)=C1/SC(Cc2ccc(Cl)cc2)C(=O)N1c1ccccc1 (centres unmarked),9.79
5,CC(C)(C)CC(=O)Nc1cc(S(=O)(=O)N2CCOCC2)ccc1N1CCCC1,11.8
6,Cc1ccc(CNC(=O)Nc2ccc(OC(F)(F)F)cc2)n1C,11.5
7,Cc1ccccc1/C=C/C(=O)N1CCOCC1,10.8
8,COc1cc(/C=C/C(=O)NC(C)CCc2ccccc2)cc(OC)c1OC (centres unmarked),1.76
9,Cc1ccc(C(=O)NCc2ccccc2F)cc1S(=O)(=O)N1CCCC1,13.1
10,CCOC(=O)C1CCN(C(=O)COC(=O)Cc2ccc(Cl)cc2)CC1,7.66
11,CCOc1ccc(OC(=O)C(CCS(C)(=O)=O)N2C(=O)c3ccccc3C2=O)cc1 (centres unmarked),2.6
12,O=C(NCCc1cccs1)c1cccs1,7.11
13,COc1ccc(C/C(N)=N/OC(C)=O)cc1OC,10.4
14,CCc1ccccc1NC(=O)CCNC(=O)Cn1ccc2ccccc2c1=O,17.9
15,Cl.NCCCC[C@@H](C(=O)N1CCNCC1)n1cc(CCC(=O)O)nn1,27.8
16,CN(Cc1c(C(=O)N/N=C/c2ccccc2)nnn1-c1nonc1N)c1ccccc1,14.7
17,CC(C)CCNC(=O)c1cc(C(=O)c2cc(F)ccc2O)cn(CCC(C)C)c1=O,13.2
18,O=C(Nc1nnc(-c2ccccc2)o1)C1CCCN1S(=O)(=O)c1cccs1 (centres unmarked),19.5
19,CCc1ccc(N/C(N)=N/c2nc(CSc3ncccn3)cc(=O)[nH]2)cc1,14.9
20,Cc1nnc(NC(=O)CSc2nc3[nH]ncc3c(=O)[nH]2)s1,13.9
21,O=C1CC(NS(=O)(=O)c2cc(F)ccc2F)CN1c1ccc2c(c1)OCCO2 (centres unmarked),8.64
22,C[C@H]1CN=C(N(C)C)N1CC1CCCCC1,10.9
23,C[C@H](NC(=O)[C@@H]1Cc2ccccc2CN1C(=O)OC(C)(C)C)C(=O)NCc1ccco1,27.7

row,Compound,"hERG current change (%, negative = inhibition) at 1uM [%]"
1,Cc1ccc2c(c1)N(Cc1ccccn1)C(=O)C(C)O2 (centres unmarked),5.6
2,O=C(CCc1nc2ccccc2[nH]1)Nc1ccc(F)cc1,-0.822
3,CCc1ccc(N=C2NC(=O)/C(=C/c3cc(OC)c(OC)c(OC)c3)S2)cc1,12
4,CC(=O)N1CCc2cc(S(=O)(=O)NC(CC(C)C)C(=O)N3CCc4ccccc4C3)ccc21 (centres unmarked),-5.9
5,CCOc1cc(NC(=O)c2cccs2)c(OCC)cc1NC(=O)c1ccccn1,0.549
6,COc1ccc(COC(=O)C2=C(C)NC(=O)NC2c2ccc(F)cc2)cc1 (centres unmarked),9.52
7,CC(C)Cc1ccc(C(=O)NCCOc2ccccc2)o1,6.77
8,CCCc1ccc(Oc2cn[nH]c2-c2ccc(O)cc2O)cc1,5.54
9,COc1ccccc1-c1noc2ncnc(Nc3cccc(C)c3)c12,18.1
10,CC1CCN(S(=O)(=O)c2ccc(S(=O)(=O)NCc3ccccc3)cc2)CC1,4.48
11,CCC(C(=O)NC(C)(C)C)N(Cc1ccccc1Cl)C(=O)c1snc(C(N)=O)c1N (centres unmarked),13
12,O=C(c1cccc(Cl)c1)N1CCCc2ccccc21,12.3
13,NC(=O)c1ccc(-c2noc(-c3cccc(Cl)c3)n2)cc1,13.3
14,N/C(=N\OC(=O)Oc1ccccc1)c1ccc([N+](=O)[O-])cc1,16.4
15,CC(=O)Nc1cccc(CP(=O)(c2ccccc2)c2ccccc2)c1,12.7
16,Cc1cc(C(=O)Nc2ccc3nc(C)sc3c2)c2ccccc2n1,8.39
17,CCC(=O)Oc1oc(-c2ccccc2)nc1C=Nc1ccc(C)cc1,11.8
18,O=C(NCN1C(=O)C2C3C=CC(C3)C2C1=O)Nc1cccnc1 (centres unmarked),8.65
19,CCCCNC(=O)c1cc2cc(OC)ccc2[nH]1,12.5
20,C/C(N)=C(/C#N)C(=O)COC(=O)CNS(=O)(=O)c1ccc(C)cc1,21.3

# Source: PMC4336329 (PLoS ONE, 2015)
